Test results from the supplement of paper PMC8047034.
Where a name gives a salt, the structure may show the parent alone. The list shows a part of the results. Single values are uncertain, as repeats are few or missing.

Columns and labels:
[1] = system: OVCAR4; assay: log2 surviving fraction (library drug vs vehicle, or drug + carboplatin vs carboplatin alone; relative to plate median); ovarian cancer lines: OVCAR4 is platinum-sensitive and Ov4Carbo platinum-resistant; higher = more cell survival; details: library drug concentration 10 µM, 7 days
[2] = system: Ov4Carbo; assay: as above; details: library drug concentration 10 µM, 7 days

Compound | log2 surviving fraction ([1]; carboplatin co-treatment 0 µM) | log2 surviving fraction ([1]; carboplatin co-treatment 5 µM) | log2 surviving fraction ([2]; carboplatin co-treatment 0 µM) | log2 surviving fraction ([2]; carboplatin co-treatment 5 µM)
Cc1nc2n(c(=O)c1CCN1CCC(c3noc4cc(F)ccc34)CC1)CCCC2 [Risperidone (Risperdal)] | 0.529 | -0.564 | -0.134 | -0.0218
NCCc1c[nH]cn1 [Histamine Phosphate] | 1.04 | 1.41 | 1.16 | 1.2
CC(C)NCC(O)COc1ccc(CCOCC2CC2)cc1 (stereo not given) [Betaxolol hydrochloride (Betoptic)] | 0.735 | 0.792 | 0.335 | 0.425
CC1=C(/C=C/C(C)=C/C=C/C(C)=C/C=C/C=C(C)/C=C/C=C(C)/C=C/C2=C(C)CCCC2(C)C)C(C)(C)CCC1 [Beta Carotene] | 1.03 | 0.263 | 0.112 | 0.326
CN1C(C(=O)Nc2ccccn2)=C(O)c2sccc2S1(=O)=O [Tenoxicam (Mobiflex)] | -0.187 | 0.0577 | 1.01 | -0.00188
Nc1cc(C(Cl)=C(Cl)Cl)c(S(N)(=O)=O)cc1S(N)(=O)=O [Clorsulon] | -0.0971 | 0.113 | 0.00579 | 0.583
CC(=O)OC[C@H]1O[C@@H]([S-])[C@H](OC(C)=O)[C@@H](OC(C)=O)[C@@H]1OC(C)=O.CCP(CC)CC.[Au+] [Auranofin] | -8.7 | -7.52 | -7.91 | -6.89
CCC[S+]([O-])c1ccc2[nH]c(NC(=O)OC)nc2c1 (stereo not given) [Albendazole Oxide (Ricobendazole)] | -2.04 | -1.64 | -1.88 | -0.706
CC1C=CC=CCCC=CC=CC=CC=CC(OC2OC(C)C(O)C(N)C2O)CC2OC(O)(CC(O)C(O)CCC(O)CC(O)CC(O)CC(=O)OC(C)C(C)C1O)CC(O)C2C(=O)O (stereo not given) [Nystatin (Mycostatin)] | 0.259 | -1.87 | 0.412 | -2.07
CN(C)CCOc1ccc(/C(=C(/CCCl)c2ccccc2)c2ccccc2)cc1 [Toremifene Citrate (Fareston, Acapodene)] | -5.51 | -1.82 | -2.66 | -3.35
COc1ccc(CN(CCN(C)C)c2ccccn2)cc1 [Pyrilamine Maleate] | -1.79 | -7.24 | 0.322 | 0.167
CN[C@H]1CC[C@@H](c2ccc(Cl)c(Cl)c2)c2ccccc21 [Sertraline HCl] | -9.01 | -7.7 | -7.95 | -7.61
COc1cccc2c1C(=O)c1c(O)c3c(c(O)c1C2=O)C[C@@](O)(C(C)=O)C[C@@H]3O[C@H]1C[C@H](N)[C@H](O)[C@H](C)O1 [Daunorubicin HCl (Daunomycin HCl)] | -9.7 | -8.54 | -9.13 | -8.47
Nc1ccc(S(=O)(=O)Nc2ncccn2)cc1 [Sulfadiazine] | 1.37 | 0.986 | 0.805 | 0.396
CCc1cccc2c3c([nH]c12)C(CC)(CC(=O)O)OCC3 (stereo not given) [Etodolac (Lodine)] | -7.28 | -0.0175 | 0.683 | 0.205
CCC[C@H](NC(=O)[C@@H]1[C@H]2CCC[C@H]2CN1C(=O)[C@@H](NC(=O)[C@@H](NC(=O)c1cnccn1)C1CCCCC1)C(C)(C)C)C(=O)C(=O)NC1CC1 [Telaprevir (VX-950)] | -0.72 | -0.893 | -0.943 | -1.48
Cc1cc(C(C#N)c2ccc(Cl)cc2)c(Cl)cc1NC(=O)c1cc(I)cc(I)c1O (stereo not given) [Closantel Sodium] | -0.0218 | -0.51 | 0.191 | 0.00315
CC1(C)O[C@@H]2C[C@H]3[C@@H]4C[C@H](F)C5=CC(=O)C=C[C@]5(C)[C@@]4(F)[C@@H](O)C[C@]3(C)[C@]2(C(=O)CO)O1 [Fluocinolone acetonide (Flucort-N)] | 0.18 | -0.0459 | 0.435 | 0.673
CCCCCCCCOc1ccccc1C(=O)Nc1ccc(C(=O)OCC[N+](C)(CC)CC)cc1 [Otilonium Bromide] | 0.877 | 0.73 | 0.44 | 0.526
CCCC(=O)O[C@]1(C(=O)COC(C)=O)CC[C@H]2[C@@H]3C[C@H](F)C4=CC(=O)C=C[C@]4(C)[C@@]3(F)[C@@H](O)C[C@@]21C [Difluprednate] | -0.239 | -0.585 | 1.43 | -0.125
C[C@H]1[C@H](NC(=O)/C(=N\OC(C)(C)C(=O)O)c2csc(N)n2)C(=O)N1S(=O)(=O)O [Aztreonam (Azactam, Cayston)] | 0.922 | 0.683 | 0.945 | 0.338
CN1CCC[C@@H]1CCO[C@](C)(c1ccccc1)c1ccc(Cl)cc1 [Clemastine Fumarate] | -1.74 | -0.791 | -1.89 | -1.71
CCC[C@@H]1C[C@@H](C(=O)N[C@@H]([C@H]2O[C@H](SC)[C@H](O)[C@@H](O)[C@H]2O)[C@@H](C)O)N(C)C1 [Lincomycin hydrochloride (Lincocin)] | 0.399 | 0.538 | 0.251 | 0.165
CCCCCCCCCCCCCCSCC(=O)OC[C@H](COP(=O)([O-])OCC[N+](C)(C)C)OC(=O)CSCCCCCCCCCCCCCC [Phosphatidylcholine] | -1.04 | 0.752 | 0.0855 | 0.565
CCc1oc2ccccc2c1C(=O)c1cc(Br)c(O)c(Br)c1 [Benzbromarone] | 1.21 | 0.169 | 1.24 | 0.622
